# The list shows a part of the results.
# Columns and labels:
# Test in all cases: glycan array binding signal (z-score within array); higher = stronger binding
# Conditions in all cases: glycan notation: IUPAC condensed, linker removed; mutation: E227G
# [1] = target: GlcNAc(a1-6)Gal(b1-4)GlcNAc
# Procedure, shortened: (§1)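 Glycan array data were curated from 3228 arrays in the Consortium for Functional Glycomics database and kept only where the protein sequence was available. Glycan names were converted to IUPAC-condensed notation, and columns mapping to the same glycan were averaged. The binding signal is a within-array Z-score, averaged across arrays of the same protein sequence at different concentrations or buffers and across linkers. Negative Z-scores can be read as non-binding.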
# [2] = target: GlcNAc(b1-2)Gal(b1-3)GalNAc
# Procedure, shortened: as §1
# [3] = target: GlcNAc(b1-2)Man(a1-3)[GlcNAc(b1-2)Man(a1-6)]Man(b1-4)GlcNAc(b1-4)GlcNAc
# Procedure, shortened: as §1
# [4] = target: GlcNAc(b1-2)Man(a1-3)[GlcNAc(b1-2)Man(a1-6)]Man(b1-4)GlcNAc(b1-4)[Fuc(a1-6)]GlcNAc
# Procedure, shortened: as §1
# [5] = target: GlcNAc(b1-2)Man(a1-3)[GlcNAc(b1-4)][GlcNAc(b1-2)Man(a1-6)]Man(b1-4)GlcNAc(b1-4)GlcNAc
# Procedure, shortened: as §1
# [6] = target: GlcNAc(b1-2)Man(a1-3)[GlcNAc(b1-4)][GlcNAc(b1-2)Man(a1-6)]Man(b1-4)GlcNAc(b1-4)[Fuc(a1-6)]GlcNAc
# Procedure, shortened: as §1
# [7] = target: GlcNAc(b1-2)[GlcNAc(b1-4)]Man(a1-3)[GlcNAc(b1-2)Man(a1-6)]Man(b1-4)GlcNAc(b1-4)GlcNAc
# Procedure, shortened: as §1
# [8] = target: GlcNAc(b1-2)[GlcNAc(b1-4)]Man(a1-3)[GlcNAc(b1-4)][GlcNAc(b1-2)Man(a1-6)]Man(b1-4)GlcNAc(b1-4)GlcNAc
# Procedure, shortened: as §1
# [9] = target: GlcNAc(b1-2)[GlcNAc(b1-4)]Man(a1-3)[GlcNAc(b1-4)][GlcNAc(b1-2)[GlcNAc(b1-6)]Man(a1-6)]Man(b1-4)GlcNAc(b1-4)GlcNAc
# Procedure, shortened: as §1
# [10] = target: GlcNAc(b1-2)[GlcNAc(b1-4)]Man(a1-3)[GlcNAc(b1-4)][GlcNAc(b1-2)[GlcNAc(b1-6)]Man(a1-6)]Man(b1-4)GlcNAc(b1-4)[Fuc(a1-6)]GlcNAc
# Procedure, shortened: as §1
# [11] = target: GlcNAc(b1-2)[GlcNAc(b1-6)]Man(a1-6)[GlcNAc(b1-2)Man(a1-3)]Man(b1-4)GlcNAc(b1-4)GlcNAc
# Procedure, shortened: as §1
# [12] = target: GlcNAc(b1-2)[GlcNAc(b1-6)]Man(a1-6)[GlcNAc(b1-2)Man(a1-3)]Man(b1-4)GlcNAc(b1-4)[Fuc(a1-6)]GlcNAc
# Procedure, shortened: as §1
# [13] = target: GlcNAc(b1-2)[GlcNAc(b1-6)]Man(a1-6)[GlcNAc(b1-4)][GlcNAc(b1-2)Man(a1-3)]Man(b1-4)GlcNAc(b1-4)GlcNAc
# Procedure, shortened: as §1
# [14] = target: GlcNAc(b1-3)Fuc
# Procedure, shortened: as §1
# [15] = target: GlcNAc(b1-3)Gal
# Procedure, shortened: as §1
binder,measurement,setting,value
"Epa1-NP-mutant-E227G (Candida glabrata), Q6VBJ0 (protein) MILNPALFLNKCVCIYTTLILLLLTNGGYATSSNDISLASKDPTTFPLGCSPDITTPKKGLSMELYSYDFRKKGSYPCWDAAYLDPNYPRTGYKSHRLLAKVDGVTGNINFYYHATKGCTPQLGHLPASYNYPKPLTMTNFTMLLYGYFRPKVTGFHTFTISADDLLFVNFGAGNAFDCCRRDSSADHFGNYQAYAIWGSKTAKDELTVHLDAGVYYPIRLFYNNRGYDGALSFTFKTESNENTVSDFSEYFFSLDDTEEGCPGLISYDSSCASVKTSKIIGIDYHTETPNENLVPITKTIYHLGIPCTGTTTTPLCGSGFYDPLANKCVTINTSSTSSVTKTTSHTTSKEVSFHSSISSQKTLIPKSIPSPYGPIKSQSIPTEMETSSEISSSEYAFSDVISTPSHSPYTKKHSSLNSSSYTSTVIHSLTSYSISQGIFSTSLSEQNITSKSSTDKFSTATSMSNNITQSSIIISQFSTNNENYTTTSMHTSSDKISTETLNNSISTTTSILFSNSSTILKNNTTIISSDKDTHYHPVNPTIVCSTNKTEIICASITQPSISNSNNHWSSSVLKFNSTTVRSTLPSSAGSNETSINVPFSSSTESNTSTSSTSTSNSKMVRSTLPSSAGSNETSISVPFSSSTESNTSTSSTSTSNSKMVRSTLPSSAGSNETSINVPFSSSTESNTSTSSTSTSNSKTVRSTPFSSAGIIMTSLSQRNNKSASSYASSNSKCYNTADSCRKVHSTPSYLLTSSYTSEGVDYDCSLVSTKLKINDTNCVNNKHTTKSCLKTSVTTTIPTLEIKTARKSSSNTIGLHSYPTSSPNKSISSAPIIGYISSFKTIKTASPSYQTSDLTTITTITSLNNPGSTAVENTHESNDKSRKTSSNDISSKHSVIKETKDAVESSNKSHQTNTLKCSSIIIASSSHNSYESLGGTTLTLTLSKVYSPQNNDTLPFLEISEVNPSRTVLPESSKMMQYLTSTEERNKTARNTIATNIVSISTFHFEGEGNAIRMGYTQLLLMLIGIIVMNIGT",glycan array binding signal (z-score),[1],0.703
same,glycan array binding signal (z-score),[2],-0.312
same,glycan array binding signal (z-score),[3],-0.135
same,glycan array binding signal (z-score),[4],-0.037
same,glycan array binding signal (z-score),[5],-0.376
same,glycan array binding signal (z-score),[6],-0.217
same,glycan array binding signal (z-score),[7],-0.149
same,glycan array binding signal (z-score),[8],-0.114
same,glycan array binding signal (z-score),[9],0.01
same,glycan array binding signal (z-score),[10],-0.15
same,glycan array binding signal (z-score),[11],-0.302
same,glycan array binding signal (z-score),[12],0.01
same,glycan array binding signal (z-score),[13],-0.182
same,glycan array binding signal (z-score),[14],-0.132
same,glycan array binding signal (z-score),[15],-0.233
